# Results from a collection of fitness landscapes (doi:10.1126/science.1257360).
# Some of the results follow.
# B1: PhoQ; a variant is named by its letters at X, in order, P23837 (parent)
# chain: MKKLLRLFFPLSLRVRFLLATAAVVLVLSLAYGMVALIGYSVSFDKTTFRLLRGESNLFYTLAKWENNKLHVELPENIDKQSPTMTLIYDENGQLLWAQRDVPWLMKMIQPDWLKSNGFHEIEADVNDTSLLLSGDHSIQQQLQEVREDDDDAEMTHSVAVNVYPATSRMPKLTIVVVDTIPVELKSSYMVWSWFIYVLSANLLLVIPLLWVAAWWSLRPIEALAKEVRELEEHNRELLNPATTRELTSLVRNLNRLLKSERERYDKYRTTLTDLTHSLKTPLXXLQXXLRSLRSEKMSVSDAEPVMLEQISRISQQIGYYLHRASMRGGTLLSRELHPVAPLLDNLTSALNKVYQRKGVNISLDISPEISFVGEQNDFVEVMGNVLDNACKYCLEFVEISARQTDEHLYIVVEDDGPGIPLSKREVIFDRGQRVDTLRPGQGVGLAVAREITEQYEGKIVAGESMLGGARMEVIFGRQHSAPKDE
# Variants of: B1
# Assay: enrichment ratio after two sorts for PhoP signalling (ratio (wild type AVST 3.29)); higher = more functional
# Settings: with PhoP (E. coli)
row,Variant,enrichment ratio
1,MDPH,≤ 0.25
2,ERAN,≤ 0.25
3,HWHV,≤ 0.25
4,KGIK,≤ 0.25
5,GYCS,≤ 0.25
6,PHNC,≤ 0.25
7,VNDS,≤ 0.25
8,TWMH,≤ 0.25
9,REGY,≤ 0.25
10,LPLR,≤ 0.25
11,ISCH,≤ 0.25
12,YLIQ,≤ 0.25
13,DIQI,≤ 0.25
14,TQIE,≤ 0.25
15,FHVR,≤ 0.25
16,MDVL,≤ 0.25
17,FRQN,≤ 0.25
18,DVSV,≤ 0.25
19,PREF,≤ 0.25
20,MHEI,≤ 0.25
21,WDML,≤ 0.25
22,TWMG,≤ 0.25
23,IVVA,≤ 0.25
24,HERN,≤ 0.25
25,RKPK,≤ 0.25
26,PNPV,≤ 0.25

row,Variant,enrichment ratio
1,VSIR,≤ 0.25
2,QYIK,≤ 0.25
3,DMVN,≤ 0.25
4,SVEM,≤ 0.25
5,DWIK,≤ 0.25
6,LLSA,≤ 0.25
7,GKSF,≤ 0.25
8,ENGT,≤ 0.25
9,HWWW,≤ 0.25
10,YHTD,≤ 0.25
11,QLYS,≤ 0.25
12,TSAG,6.45
13,TFYW,≤ 0.25
14,YMHN,≤ 0.25
15,LPCE,≤ 0.25
16,LVII,≤ 0.25
17,FQAP,≤ 0.25
18,SFDP,≤ 0.25
19,MHVK,≤ 0.25
20,LRHI,≤ 0.25
21,NCRW,≤ 0.25
22,MCFY,2.87
23,TFAS,2.34
24,VDRC,≤ 0.25
25,MPKN,≤ 0.25
26,NAAI,≤ 0.25

row,Variant,enrichment ratio
1,RGAP,≤ 0.25
2,TNGC,2.27
3,GIMW,≤ 0.25
4,ACRA,≤ 0.25
5,RESM,≤ 0.25
6,GSAS,≤ 0.25
7,NNEI,≤ 0.25
8,FCEG,≤ 0.25
9,ATNH,≤ 0.25
10,QNSN,≤ 0.25
11,AYLC,0.263
12,YDED,≤ 0.25
13,QKYY,≤ 0.25
14,AFWP,≤ 0.25
15,AMFD,≤ 0.25
16,DAEC,≤ 0.25
17,NHSW,≤ 0.25
18,FMTF,≤ 0.25
19,RAQG,1.15
20,ETFI,≤ 0.25
21,KNPP,≤ 0.25
22,GPNS,≤ 0.25
23,YHPV,≤ 0.25
24,FRPS,≤ 0.25
25,VATR,≤ 0.25
26,WMFN,≤ 0.25

row,Variant,enrichment ratio
1,KMHD,≤ 0.25
2,KRAS,≤ 0.25
3,SKQW,≤ 0.25
4,YQSK,≤ 0.25
5,TFCR,≤ 0.25
6,IFSC,≤ 0.25
7,AEWT,22.1
8,SLWY,≤ 0.25
9,FPSH,≤ 0.25
10,DGFV,≤ 0.25
11,PPQC,≤ 0.25
12,LEAD,≤ 0.25
13,FGFA,≤ 0.25
14,NENH,≤ 0.25
15,KYKP,≤ 0.25
16,VNSH,≤ 0.25
17,PWYV,≤ 0.25
18,YADV,≤ 0.25
19,WAGG,≤ 0.25
20,AVNC,≤ 0.25
21,MMWR,≤ 0.25
22,VFRH,≤ 0.25
23,MKSL,≤ 0.25
24,KTRH,≤ 0.25
25,NDTH,≤ 0.25
26,DQEP,≤ 0.25

row,Variant,enrichment ratio
1,VHYN,≤ 0.25
2,TDFR,≤ 0.25
3,TRIQ,≤ 0.25
4,VMAE,≤ 0.25
5,MRCG,≤ 0.25
6,KQLN,≤ 0.25
7,TNFC,≤ 0.25
8,RTSM,≤ 0.25
9,PLHY,≤ 0.25
10,NYYW,≤ 0.25
11,FTGK,≤ 0.25
12,FKFV,≤ 0.25
13,IFKP,≤ 0.25
14,VDPQ,≤ 0.25
15,KATP,≤ 0.25
16,IKFD,≤ 0.25
17,GYLI,0.357
18,QKNG,≤ 0.25
19,YCVQ,≤ 0.25
20,YRNI,≤ 0.25
21,GMIE,≤ 0.25
22,VDFN,≤ 0.25
23,FDCG,≤ 0.25
24,NTCS,≤ 0.25
25,TPDA,≤ 0.25
26,WGSV,≤ 0.25

row,Variant,enrichment ratio
1,AAVN,≤ 0.25
2,EGPI,≤ 0.25
3,KDYN,≤ 0.25
4,TCQK,14.2
5,TFWM,≤ 0.25
6,TRIW,≤ 0.25
7,LETP,≤ 0.25
8,IMSR,≤ 0.25
9,HSKY,≤ 0.25
10,PGSW,≤ 0.25
11,EKHY,≤ 0.25
12,QNTM,≤ 0.25
13,QQNF,16.3
14,WWAY,≤ 0.25
15,VNHD,≤ 0.25
16,KNKI,≤ 0.25
17,IDWA,≤ 0.25
18,DPPA,≤ 0.25
19,SAFL,3.78
20,PNSI,≤ 0.25
21,SRYC,≤ 0.25
22,KFVK,≤ 0.25
23,HPWQ,≤ 0.25
